# Reference: PubChem BioAssay AID686979 (National Center for Advancing Translational Sciences (NCATS), 2013)
# Among all 420,000 compounds or so, about 50,000 (12%) were called active. Inconclusive means that the source gave no clear call. Such entries were picked first, then a sample of the others. Calls follow the shape of the dose curve; as a rule, active = well fitted inhibition curve with a large enough effect; inconclusive = small, poorly fitted or top-dose-only effect; inactive = flat fitted curve, though single readings scatter. No potency is given beside an inconclusive call; the fits are too rough.
# Assay: qHTS for Inhibitors of human tyrosyl-DNA phosphodiesterase 1 (TDP1): qHTS in cells in presence of CPT; also: nearly all actives have a fitted effect of over 55% in size
# Details: chicken DT40 Tdp1-/-;hTDP1 cells + 20 nM CPT, ATP luminescence, 48 h; activity change, negative = growth inhibition: at 46.2 µM (top of the series) unless noted
# Method in brief: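 Chicken DT40 Tdp1-/- cells complemented with human TDP1, 400 cells/well, exposed to compounds plus 20 nM camptothecin for at least 48 h at 37 C; viability read as ATP content by CellTiter-Glo luminescence.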
# % is scaled to controls: 0 for no effect and ±100 for the full control effect; potency is read from the fitted curve at half-maximal effect; tags tell the direction and shape of the fitted curve.
SMILES,Potency,"activity change, negative = growth inhibition"
O=C(N=Nc1c(O)[nH]c2ccc(Cl)cc12)c1cc(-c2cccs2)nc2ccccc12,"inconclusive [inhibitor, partial curve]",–
CC(=O)N(Cc1cccnc1)c1cccc(-c2nc3ccccc3s2)c1,"inconclusive [inhibitor, single point]",–
O=C(O)Cc1sc(-c2ccc(Cl)cc2)nc1-c1ccccc1,"inconclusive [inhibitor, single point]",–
O=C(Nc1ccc2c(c1)OCO2)c1cc(C2CCCN(C(=O)C3CCCCC3)C2)on1 (stereo unspecified),active: 23.1 µM,–
Cc1noc(C)c1C(=O)N1CCC2(CCN(Cc3nccs3)CC2)CC1,–,inactive: 2.1%
COc1ccc(C(CNC(=O)c2ccc(S(=O)(=O)Nc3cccc(C)c3C)cc2)N2CCOCC2)cc1 (stereo unspecified),"inconclusive [inhibitor, partial curve]",–
CC(C)CCNC(=O)C1CC2Cn3c(nc4cc(Cl)c(Cl)cc43)C2N1C (stereo unspecified),"inconclusive [inhibitor, single point]",–
CCOc1ccccc1N1C(=O)CN(Cc2ccc(OC)c(OC)c2)C1=S,"inconclusive [inhibitor, single point]",–
Cn1c(-c2ccccc2)c(C#Cc2ccc(N)cc2)c2ccccc21,"inconclusive [inhibitor, single point]",–
CCOc1ccc(C(=O)NCCc2ccccc2)cc1,–,inactive: -26.4%
CCOc1ccc(C(=O)CCC(=O)NCC(=O)OCc2ccccc2)cc1OCC,–,inconclusive: -33.8% [inhibitor]
Cc1ccc2nc(-c3ccccc3)cc(C(=O)NCC(c3ccco3)N(C)C)c2c1 (stereo unspecified),"inconclusive [inhibitor, single point]",–
Cc1ccc(C(=O)N2CCN(c3ccccc3)CC2)cc1S(=O)(=O)N1CCOCC1,"inconclusive [inhibitor, single point]",–
CCNC(=S)Nc1scc(-c2ccccc2)c1C(=O)OCC,"inconclusive [inhibitor, single point]",–
O=C(COC(=O)C1CC2CCCC(C1)C2=O)NNC(=O)c1ccccc1F (stereo unspecified),–,inactive: -0.545%
CN(C)c1ccc(-c2nc(-c3cccs3)c(-c3cccs3)[nH]2)cc1,active: 10.3 µM,–
COc1ccc(C(=O)Nc2cc3c4c(c2)CC(=O)N4CCC3)c(OC)c1,"inconclusive [inhibitor, single point]",–
Cc1ccc(CNC(=O)[C@]2(C)CCC[C@@]3(C)C4CC[C@@]5(C)C[C@]4(CCC32)CC5=O)cc1 (stereo partly specified),"inconclusive [inhibitor, single point]",–
CCOc1ccc(N=Nc2c(C)[nH]n(-c3ccccc3)c2=O)cc1,–,inactive: 10.4%
CCC(C)Sc1nc2c(c(=O)[nH]c(=O)n2C)n1CC(O)COc1ccccc1C (stereo unspecified),–,inactive: -29.9%
CC(CCc1ccccn1)C(=O)C(C)CCc1ccccn1 (stereo unspecified),"inconclusive [inhibitor, single point]",–
CCOc1ccc(S(=O)(=O)N2CCCC(C(=O)NCC3CCCO3)C2)cc1Cl (stereo unspecified),"inconclusive [inhibitor, single point]",–
O=C(/C=C/c1ccco1)N1CCN(S(=O)(=O)/C=C/c2ccccc2)CC1,"inconclusive [inhibitor, single point]",–
c1ccc2c(N3CCCCC3)nc(N3CCCCC3)nc2c1,active: 18.4 µM,–

SMILES,Potency,"activity change, negative = growth inhibition"
CCC(=O)n1nc(NCc2ccc(OC)c(OC)c2)nc1NCc1ccc(OC)c(OC)c1,"inconclusive [inhibitor, single point]",–
O=C(CNS(=O)(=O)c1ccc(Br)cc1Cl)OCC(=O)c1ccc[nH]1,–,inactive: 2.23%
COc1ccc(NS(=O)(=O)c2cccc(-c3nnc(-c4ccccc4)o3)c2)cc1,"inconclusive [inhibitor, single point]",–
CC1(C)N=C(SCC(=O)Nc2ccc(Cl)cc2)C(c2ccc(Cl)cc2)=N1,"inconclusive [inhibitor, single point]",–
CSc1ccccc1OCc1cc(C(=O)N(C)Cc2ccc3nsnc3c2)no1,"inconclusive [inhibitor, single point]",–
CC1CCN(CC(O)COc2ccc(OCC(O)CN3CCC(C)CC3)cc2)CC1 (stereo unspecified),–,inconclusive: -30.4% [inhibitor]
Cn1c(=O)c2c(nc(CN3CCN(c4ccccc4)CC3)n2Cc2c(F)cccc2Cl)n(C)c1=O,active: 20.6 µM,–
COc1ccc(NC(=O)CCS(=O)(=O)c2ccc3c(c2)oc(=O)n3C)cc1OC,inactive,–
O=C(Nc1ccc(Nc2ccccc2)cc1)c1ccc(F)cc1,"inconclusive [inhibitor, single point]",–
CC1=C(C(=O)NCc2ccccc2C)C2(CCCCCC2)OC1=O,"inconclusive [inhibitor, single point]",–
COC(=O)c1sc(-c2ccccc2)cc1NC(=O)Nc1ccc(Cl)cc1,"inconclusive [inhibitor, single point]",–
NC(Cc1c[nH]c2ccccc12)C(=O)NCc1ccco1 (stereo unspecified),–,inactive: -21.5%
CC(C)(C)S(=O)N1Cc2cc(C(=O)NCc3ccc(Oc4ccccc4)cc3)nc(-c3cccc(-c4cc5ccccc5o4)c3)c2[C@@H]1CCO (stereo partly specified),"inconclusive [inhibitor, single point]",–
CCc1nnc(NC(=O)C2Cc3ccccc3CN2S(=O)(=O)c2c(C)c(C)cc(C)c2C)s1 (stereo unspecified),–,inactive: -26.4%
N#CC(C(=O)NCCc1ccccc1)c1nc2ccccc2nc1N1CCOCC1 (stereo unspecified),active: 16.4 µM,–
Cc1cccc(C(=O)NNC(=O)c2cccc([N+](=O)[O-])c2)c1,–,inactive: 6.1%
Cc1ccc(-c2nc(SCC(=O)NCC3CCCO3)c3c(=O)n(C)c(=O)n(C)c3n2)cc1 (stereo unspecified),–,inactive: -25.3%
Cc1cc(OCCn2c(CCNC(=O)C3CCCCC3)nc3ccccc32)ccc1Cl,"inconclusive [inhibitor, single point]",–
CNc1nc(C23CC4CC(CC(C4)C2)C3)cs1,"inconclusive [inhibitor, partial curve]",–
C[C@]12CCC[C@H](O1)c1c(cc3c(c1O)C(=O)c1c(O)cc(O)cc1C3=O)O2,"inconclusive [inhibitor, single point]",–
COc1cc2[nH]c3c(=O)n4c(nc3c2cc1OC)SCCC4,"inconclusive [inhibitor, single point]",–
CC(C)CN(C(=O)c1ccc([N+](=O)[O-])s1)c1c(N)n(Cc2ccccc2)c(=O)[nH]c1=O,"inconclusive [inhibitor, single point]",–
COC(=O)c1cc2oc(C)cc2n1CC(=O)N(C)c1ccccc1,–,inactive: -0.183%
O=C(CN1CCOc2ccccc21)NCc1ccco1,–,inconclusive: -28.4% [inhibitor]

SMILES,Potency,"activity change, negative = growth inhibition"
CC(C)CCN1CCC(Cc2ccccc2)(NC(=O)c2ccccc2)C1=O (stereo unspecified),"inconclusive [inhibitor, single point]",–
COc1cc(-c2cnc3c(NC=O)cc(-c4cccnc4)cn23)cc(OC)c1OC,active: 2.91 µM,–
Cc1cccc(CC(=O)NCCn2c(C)cc3ccccc32)c1,"inconclusive [inhibitor, single point]",–
COc1ccc(C(=O)c2ccc3oc(-c4ccc(OC)cc4)c(-c4ccc(O)cc4)c3c2)cc1,"inconclusive [inhibitor, full curve]",–
CCc1ccccc1NC(=O)N1CCc2ccccc21,active: 23.1 µM,–
CCN(CC)CCCN(C(=O)c1ccccc1F)c1nc(-c2ccc(OC)cc2)cs1,"inconclusive [inhibitor, partial curve, poor fit]",–
O=C(NCCN1CCOCC1)c1ccc(F)cc1,–,inactive: -2.25%
CCOC(=O)CSC1=Nc2ccccc2C2=NC(CCC(=O)NCc3ccc(OC)cc3)C(=O)N12 (stereo unspecified),–,inactive: -13%
OCC1(Cc2ccccc2)CCN(Cc2cccc(F)c2F)CC1,"inconclusive [inhibitor, single point]",–
O=C(N/C=C\n1cnc2cc(C(F)(F)F)ccc21)c1ccc([N+](=O)[O-])cc1,–,inactive: -2.57%
CC1CCCN(C(=S)Nc2ccc(S(=O)(=O)N3CCCCC3)cc2)C1 (stereo unspecified),"inconclusive [inhibitor, single point]",–
CC1(C)C(c2cccs2)=[N+]([O-])C2(CCCCC/C2=N\NC(N)=S)N1O (stereo unspecified),–,inactive: -3.55%
CC(C)=CC(=O)N1CCC(Oc2cccc(C(=O)NCc3ccccn3)c2)CC1,–,inactive: -20.9%
NS(=O)(=O)c1ccc(S(=O)(=O)NCCc2ccccc2)cc1,"inconclusive [inhibitor, single point]",–
CSCCC(NC(=O)c1ccccc1)C(=O)N1CCN(Cc2ccc(Cl)cc2)CC1 (stereo unspecified),"inconclusive [inhibitor, single point]",–
CN(C(=O)CSc1cc(C(=O)c2nccn2C)c2ccccc2n1)c1ccccc1,active: 14.6 µM,–
COc1ccccc1Cn1ccn(Cc2ccc(C)cc2)c(=O)c1=O,"inconclusive [inhibitor, single point]",–
Cc1ccc(Cl)cc1NC(=O)NCCN1CCCCC1,–,inactive: 24.8%
Cc1ccc(C(=O)NC(=S)NNS(=O)(=O)c2ccccc2)cc1,–,inactive: -0.145%
O=C(NCc1ccccc1Cl)c1ccc(CS(=O)(=O)c2ccccc2)o1,–,inactive: -15.8%
O=C(Nc1nnc(-c2ccccc2Cl)o1)c1ccco1,"inconclusive [inhibitor, single point]",–
COc1ccc(CNC(=O)CCC2N=C3c4ccccc4N=C(SCc4ccccc4F)N3C2=O)cc1 (stereo unspecified),"inconclusive [inhibitor, single point]",–
Cc1ccc(O)c(/C=N/NC(=O)c2[nH]ncc2Br)c1,–,inactive: -8.91%
